Measurements taken from the supplement of paper PMC4967469.

Assays:
Assay in all cases: Viability of human cancer cell lines after 72 h of drug (GDSC screen)
[1] = compound: Cc1cc([C@@H](C)Nc2ccccc2C(=O)O)c2nc(N3CCOCC3)cc(=O)n2c1 [AZD6482]
Method: (§1)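 Human cancer cell lines in 384-well plates, medium with 10% serum, drug for 72 h over a 256-fold dose range (nine 2-fold or five 4-fold steps up to the top dose). Adherent lines were fixed and stained with the nucleic acid dye Syto60, suspension lines read with resazurin; signal relative to control wells, capped at 0 and 100%. One two-parameter sigmoid per drug and line, fitted in a mixed model over all curves with the slope shared within a line.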

[2] = compound: Cn1ncnc1[C@H]1c2n[nH]c(=O)c3cc(F)cc(c23)N[C@@H]1c1ccc(F)cc1 [BMN-673]; conditions: top dose 10 µM; top dose inferred
Method: as §1

[3] = compound: NS(=O)(=O)OC[C@@H]1C[C@@H](n2ccc3c(N[C@H]4CCc5ccccc54)ncnc32)C[C@@H]1O [MLN4924]; conditions: top dose 1 µM; top dose inferred
Method: as §1

[4] = top dose 5 µM, screen: GDSC drug entry 1066, top dose inferred
[5] = top dose 5.12 µM, screen: GDSC drug entry 156

Row | Cell Line | AUC [1, 4] | IC50 [1, 4] [µM] | AUC [1, 5] | IC50 [1, 5] [µM] | AUC [2] | IC50 [2] [µM] | AUC [3] | IC50 [3] [µM]
1 | OMC-1 (cervix, adherent) | 0.966 | > 5 | 0.972 | > 5.12 | 0.952 | > 10 | 0.786 | 0.452
2 | OPM-2 (myeloma, suspension) | 0.994 | > 5 | 0.971 | > 5.12 | 0.993 | > 10 | 0.984 | > 1
3 | OSC-19 (head and neck, adherent) | 0.936 | > 5 | 0.949 | > 5.12 | 0.944 | > 10 | 0.924 | > 1
4 | OSC-20 (head and neck, adherent) | 0.855 | > 5 | 0.812 | 3.39 | 0.897 | > 10 | 0.884 | > 1
5 | OVCAR-5 (ovary, adherent) | 0.976 | > 5 | 0.907 | > 5.12 | 0.831 | 8.18 | 0.81 | 0.661
6 | OVMIU (ovary, adherent) | 0.651 | 0.91 | 0.794 | 3.02 | 0.814 | 7.23 | 0.814 | 0.723
7 | P12-ICHIKAWA (T-cell lymphoblastic leukaemia, suspension) | 0.994 | > 5 | 0.954 | > 5.12 | 0.915 | 8.8 | 0.914 | 0.867
8 | P30-OHK (lymphoblastic leukaemia, suspension) | 0.793 | 1.87 | 0.701 | 1.05 | 0.322 | 0.219 | 0.853 | 0.589
9 | P31-FUJ (acute myeloid leukaemia, suspension) | 0.994 | > 5 | 0.996 | > 5.12 | 0.996 | > 10 | 0.862 | 0.544
10 | P32-ISH (Burkitt lymphoma, suspension) | 0.978 | > 5 | 0.842 | 2.36 | 0.577 | 0.962 | 0.827 | 0.419
11 | PA-TU-8902 (pancreas, adherent) | 0.92 | > 5 | 0.965 | > 5.12 | 0.811 | 6.42 | 0.843 | 0.89
12 | PA-TU-8988T (pancreas, adherent) | 0.772 | 1.94 | 0.928 | > 5.12 | 0.906 | > 10 | 0.813 | 0.543
13 | PANC-03-27 (pancreas, adherent) | 0.885 | 4.84 | 0.877 | 4.57 | 0.843 | 6.42 | 0.717 | 0.245
14 | PANC-08-13 (pancreas, adherent) | 0.891 | > 5 | 0.89 | > 5.12 | 0.931 | > 10 | 0.981 | > 1
15 | PANC-10-05 (pancreas, adherent) | 0.915 | > 5 | 0.703 | 1.42 | 0.93 | > 10 | 0.931 | > 1
16 | PC-3 [JPC-3] (lung adenocarcinoma, adherent) | 0.914 | > 5 | 0.95 | > 5.12 | 0.924 | > 10 | 0.906 | > 1

Row | Cell Line | AUC [1, 4] | IC50 [1, 4] [µM] | AUC [1, 5] | IC50 [1, 5] [µM] | AUC [2] | IC50 [2] [µM] | AUC [3] | IC50 [3] [µM]
17 | PCI-15A (head and neck, adherent) | 0.895 | > 5 | 0.896 | > 5.12 | 0.771 | 3.88 | 0.799 | 0.486
18 | PCI-38 (head and neck, adherent) | 0.944 | > 5 | 0.984 | > 5.12 | 0.868 | 9.22 | 0.692 | 0.218
19 | PE/CA-PJ15 (head and neck, adherent) | 0.941 | > 5 | 0.946 | > 5.12 | 0.775 | 4.3 | 0.728 | 0.296
20 | PF-382 (T-cell lymphoblastic leukaemia, suspension) | 0.975 | > 5 | 0.91 | > 5.12 | 0.99 | > 10 | 0.99 | > 1
21 | PL18 (pancreas, adherent) | 0.785 | 2.13 | 0.904 | > 5.12 | 0.728 | 2.76 | 0.796 | 0.465
22 | PSN1 (pancreas, adherent) | 0.973 | > 5 | 0.991 | > 5.12 | 0.606 | 1.16 | 0.908 | > 1
23 | QIMR-WIL (acute myeloid leukaemia, suspension) | 0.873 | 4.57 | 0.817 | 2.76 | 0.668 | 1.81 | 0.832 | 0.612
24 | RCC10RGB (kidney, adherent) | 0.696 | 1.91 | 0.653 | 1.29 | 0.913 | > 10 | 0.944 | > 1
25 | RCH-ACV (B-cell leukaemia, suspension) | 0.657 | 0.781 | – | – | 0.438 | 0.437 | 0.822 | 0.454
26 | RD (rhabdomyosarcoma, adherent) | 0.911 | > 5 | 0.936 | > 5.12 | 0.805 | 5.63 | 0.895 | > 1
27 | REH (B-cell leukaemia, suspension) | 0.849 | 3.53 | 0.835 | 3.17 | 0.665 | 1.76 | 0.908 | > 1
28 | RERF-GC-1B (stomach, adherent) | – | – | 0.916 | > 5.12 | 0.908 | > 10 | 0.981 | > 1
29 | RF-48 (stomach, adherent) | 0.913 | > 5 | 0.788 | 2.55 | 0.983 | > 10 | 0.888 | > 1
30 | RH-18 (rhabdomyosarcoma, adherent) | 0.923 | > 5 | – | – | 0.942 | > 10 | 0.952 | > 1
31 | RH-41 (rhabdomyosarcoma, adherent) | 0.973 | > 5 | 0.931 | > 5.12 | 0.935 | > 10 | 0.772 | 0.326

The IC50 comes from the fitted curve, where viability falls to half of the control; where the fit passes the top or lowest dose, that dose stands as a limit. For AUC the same curve is integrated over the 256-fold range of doses and scaled to a fraction; it is 1 without any effect and falls as sensitivity rises. The top dose, if marked as inferred, comes from the curve model; the source does not state it. For some assays here: Where an entry number is given, a second screen of the drug exists; the two often differ.
